PubChem BioAssay AID1963576 (National Center for Advancing Translational Sciences (NCATS), 2024)
In all, about 46,000 compounds went through this assay and about 60 (0.1%) were called active. Inconclusive results (about 3%) are left out. Calls follow the shape of the dose curve; as a rule, active = well fitted inhibition curve with a large enough effect; inconclusive = small, poorly fitted or top-dose-only effect; inactive = no such curve, though single readings can be large or run the other way. The list shows a part of the results.

Test: Primary qHTS assay for Inhibitors of ovarian cancer metastasis using an organotypic tumor microenvironment (TME) model. Also: nearly all actives have a fitted effect of over 65% in size.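 As to activity change, negative = inhibition: plate controls were DMSO wells for no effect and tomatine positive control wells for full effect.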
Conditions: SKOV3ip1-GFP adhesion/invasion on 3D omental model, fluorescence; series mostly up to 45.8 µM; activity change, negative = inhibition: at the top concentration
Procedure, shortened: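 qHTS, 4-pt dose (0.36-46 umol/L); SKOV3ip1-GFP, 1,200 cells/well, no FBS; primary omental fibroblast/mesothelial co-culture 48 h pre-grown; 2 h RT + 16 h 37 C; PBS wash, 4% PFA; GFP count 488/509 nm.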

outcome, inactive:
COCCCNC(=O)C1CCCN(C(=O)c2cnn(-c3ccc(F)cc3)c2-n2cccc2)C1 (stereo unspecified)
COc1ccc(Cl)cc1NC(=O)Cn1c(=O)n(Cc2ccco2)c(=O)c2cccnc21
Cc1cccc(-c2noc(CN(C(=O)COc3ccc(Br)cc3C)C(C)C)n2)c1
CCOc1ccc(NC(=O)C(NS(=O)(=O)c2cccc3nsnc23)c2ccccc2)cc1 (stereo unspecified)
O=C(NC1CCCCC1)c1cc2c(Cl)nc3ccccc3c2s1
COc1ccc(C(=O)NCCn2cc(SCC(=O)Nc3cccc(C)c3)c3ccccc32)cc1
COc1cc(-c2nc3nc[nH]n3c2Nc2ccc(C(C)C)cc2)ccc1O
CCc1nn(-c2ccccc2)c2nc(-c3cccc(OC)c3)c3cc(OC)c(OC)cc3c12
COc1ccccc1N1CCN(C(=O)Cn2ncc3c([nH]c4ccccc43)c2=O)CC1
Cc1ccc(CNC(=O)CCCCn2c(=O)c3ccccc3n(Cc3c(C)cc(C)cc3C)c2=O)cc1
CCN1CCN(C(=O)c2cnn(-c3ccc(F)cc3)c2-n2cccc2)CC1
Cc1ccc(C2C=C(c3ccc(Cl)cc3)Nc3nc(NS(=O)(=O)c4ccccc4)nn32)cc1 (stereo unspecified)
COc1ccccc1NC(=O)Cn1c(=O)n(-c2cccc(C(C)=O)c2)c(=O)c2c3c(sc21)CN(C(C)=O)CC3
COc1ccccc1-c1noc(-c2ccc(N3CCC(C)CC3)c([N+](=O)[O-])c2)n1
CCN1C(=O)c2ccccc2Sc2ccc(NC(C)=O)cc21
O=C(CC1Sc2ccc(C(F)(F)F)cc2NC1=O)Nc1ccc(Cl)c(C(F)(F)F)c1 (stereo unspecified)
O=C(Nc1ccc(Br)cc1F)c1cc(S(=O)(=O)NCc2ccc(F)cc2)ccc1F
COc1ccc(CCNC(=O)c2cc3c(-c4ccccc4F)nn(C)c3s2)c(OC)c1
CCOC(=O)c1cccc(NC(=O)c2cc3c(=O)n(Cc4ccccc4)ccc3nc2C)c1
COc1ccc(NC(=O)CN(Cc2ccccc2)S(=O)(=O)c2ccc(C)cc2)cc1Cl
COc1cccc(-n2c(=O)c3c(C)c(C(=O)N(C)C)sc3n(Cc3ccc(F)cc3Cl)c2=O)c1
O=C(CCC1N=C2c3ccccc3N=C(SCc3ccccc3F)N2C1=O)NC1CCCCC1 (stereo unspecified)
CCOC(=O)c1c(Nc2ccc(C)cc2)nnc(-c2ccccc2)c1-c1ccccc1
Cn1c(=O)n(-c2ccc(F)c(Cl)c2)c(=O)c2sc3ccccc3c21
COc1ccc(N(Cc2cccs2)C(=O)COc2cccc(Cl)c2)cc1
CC1=C(C(=O)OC2CCCCCC2)C(c2c(F)cccc2Cl)CC(=O)N1 (stereo unspecified)
COC(=O)CCSc1nc2sc3c(c2c(=O)n1Cc1ccccc1)CCC(C(C)(C)C)C3 (stereo unspecified)
CCC1CCCCN1C(=O)c1ccc2c(c1)N(Cc1cccc(Cl)c1)C(=O)c1ccccc1S2(=O)=O (stereo unspecified)
Cc1cc(F)ccc1NC(=O)CCS(=O)(=O)c1ccc2c(c1)NC(=O)CO2
CCOc1cccc2cc(-c3nc(-c4ccccc4C)no3)c(=O)oc12
CCC(C(=O)Nc1ccc(C(=O)OC)cc1)n1c(=O)c(-c2ccccc2NC(C)=O)nc2ccccc21 (stereo unspecified)
Cc1nc2c(-c3ccccc3)c(C)nn2c(C)c1CCC(=O)NC(C)c1ccccc1 (stereo unspecified)
CCCC(=O)Nc1cc(C)c(O)c(-c2nc3ncccc3o2)c1

Activity change, negative = inhibition, inactive:
Cc1ccn2c(Nc3ccccc3C)c(-c3ccccn3)nc2c1 -12.7%
CCn1c(=O)n(CC)c2cc(N3CCCCC3)c(NC(=O)Nc3cc(C)cc(C)c3)cc21 3.55%
CCn1cc(C(=O)N2CCN(c3cc(C)ccc3C)CC2)c(=O)c2cc(S(=O)(=O)N3CCOCC3)ccc21 -23.7%
OCCCc1nc2ccccc2n1CCCCOc1ccccc1 3.4%
COc1ccccc1CNC(=O)C(=O)NCC(c1ccco1)S(=O)(=O)c1cccs1 (stereo unspecified) -5.07%
Cc1oc2ncn(CC(C)C)c(=O)c2c1C(=O)N1CCN(c2cccc(C(F)(F)F)c2)CC1 11.3%
CCOC(=O)C1CCN(C(=O)Cn2c(=O)cc(C)c3c(C)nn(C)c32)CC1 1.33%
Cc1ccc(C)n1-c1c(C(=O)NCCC(C)C)sc2ncccc12 -2.22%
COCCc1nn2c(=O)cc(COC(=O)c3ccc(OC)c(OC)c3)nc2s1 3.82%
CCOC(=O)c1ccccc1NC(=O)Cn1c(=O)n(Cc2nc(-c3ccccc3)no2)c(=O)c2ccccc21 4.46%
COc1cccc(NC(=O)CSC2=Nc3ccccc3C3=NC(CC(=O)NCCc4ccccc4)C(=O)N23)c1 (stereo unspecified) 1.64%
COc1cccc(NC(=O)CSC2=Nc3ccccc3N=C(c3ccc(F)cc3)C2)c1 4.13%
O=C(c1ccc2c(c1)N(Cc1ccccc1F)C(=O)c1ccccc1S2(=O)=O)N1CCCCC1 -11.3%
CCc1ccc(C(=O)c2cn(CC(=O)NCCc3ccc(OC)c(OC)c3)c3nc(C)ccc3c2=O)cc1 2.23%
O=C(CCc1nc(CN2CCN(S(=O)(=O)c3ccc(F)cc3)CC2)no1)N1CCCCC1 3.49%
CCc1ccc(-n2c(SCc3ccccc3F)nc3[nH]ncc3c2=O)cc1 -18.1%
O=C(Nc1cc2cc[nH]c2cn1)c1ccccc1 6.58%
COc1ccc(OC)c(S(=O)(=O)N2CCC(c3ccncc3)CC2)c1 -2.07%
COc1ccc(S(=O)(=O)Nc2cccnc2Nc2ccc(O)cc2)cc1 5.91%
Cc1ccc(NC(=O)c2cccc(N(C)C)c2)cc1NC(=O)c1ccc(O)cc1 -5.33%
O=C1NCCc2[nH]c(-c3ccncc3)cc21 23.6%
O=c1nc2sc3ccccc3n2c(=O)n1-c1ccc(Cl)c(Cl)c1 5.35%
O=C(CCC1N=C2c3ccccc3N=C(SCC(=O)Nc3ccccc3F)N2C1=O)NCc1ccccc1 (stereo unspecified) -7.53%
Cc1ccc(NC(=O)c2sc3nc(-c4cc5ccccc5oc4=O)[nH]c(=O)c3c2C)c(C)c1 1.96%
CCC(=O)N1CCc2cc(S(=O)(=O)NC(Cc3ccccc3)C(=O)Nc3ccc(C)cc3)ccc21 (stereo unspecified) 7.55%
COc1cc(C(=O)Nc2cc3c(cc2C)n(C)c(=O)c(=O)n3C)cc(OC)c1OC -8.54%
COc1cc(C(=O)Nc2cc(C)ccc2OCc2cc(=O)n3c(C)csc3n2)cc(OC)c1OC 2.43%
CCOc1ccc(-n2c(SCc3ccc(C(=O)OC)o3)nc3c([nH]c4ccccc43)c2=O)cc1 74%
CCCc1cc(=O)[nH]c(Nc2cccc(Cl)c2Cl)n1 6.35%
CCOc1ccc(-c2cc(OC(=O)c3ccc(F)cc3)c3c(C)oc(C)c3c(=O)c2)cc1 -0.176%
COc1ccc(NC(=O)c2cc3c(s2)-c2c(C)cccc2OC3)c(OC)c1 -9.42%
CCOC(=O)C1CCCN(S(=O)(=O)c2ccc3c(c2)CCCN3C(C)=O)C1 (stereo unspecified) -5.79%
CSc1ncc(C(=O)Nc2ccccc2C(=O)c2ccccc2)c(C(F)(F)F)n1 -7.62%
CCc1nn(CC(=O)NCCCN(CC)CC)c(=O)c2cc3sc(C)cc3n12 -2.2%
Fc1ccc(-n2cc(-c3ccccc3)c3c(NC4CCCCC4)ncnc32)cc1 -1.8%
C=C(C)Cn1c(=O)c2c(nc3n2CCN3c2ccc(CC)cc2)n(C)c1=O 5.95%
CCCCNc1nc(Oc2ccc(=O)[nH]n2)nc(N(C)C)n1 0.319%
CCn1c2ccccc2c2nnc(N3CCN(c4cc(C)ccc4C)CC3)nc21 3.51%
Fc1ccc(-c2nc(Nc3cccc(Cl)c3)nc3c2COc2ccccc2-3)cc1 2.66%
Cc1ccc(-n2ncc3c(NCCCN4CCOCC4)ncnc32)cc1 3.95%
CCOc1cc(C2C(C(=O)OC)=C(C)NC3=C2C(=O)c2ccccc23)cc(Cl)c1O (stereo unspecified) -5.5%
COc1ccc(NC(=O)C2Cc3ccccc3N2C(=O)c2ccccc2)c(OC)c1 (stereo unspecified) 1.32%
CCOc1ccccc1NC(=O)c1cc2c(Cl)nc3ccccc3c2s1 1.19%
O=C(O)c1ccc2c(c1)nc(Nc1cccc(Cl)c1)c1ccncc12 -4.8%
COc1ccc(N2CCN(S(=O)(=O)c3ccc4c(c3)CC(C)N4C(C)=O)CC2)cc1 (stereo unspecified) 9.71%
CCN(CCCNC(=O)c1c(C)oc2ncn(CC(C)C)c(=O)c12)Cc1ccccc1 4.14%
Cc1ccc(Cl)cc1NC(=O)c1oc2c(c1C)-c1[nH]ncc1CC2 20.1%
CCOC(=O)c1cnc2c(Cl)cccc2c1NCCN1CCOCC1 -8.88%
CCc1ccccc1NS(=O)(=O)c1ccc(OC)c2ncccc12 5.17%
COc1ccc2c(C)c(CCC(=O)NCCc3ccccc3OC)c(=O)oc2c1 -8.74%
CCOC(=O)c1ccccc1NC(=O)CSc1cn(CC(=O)N2CCCCC2)c2ccccc12 -6.53%
O=C(Nc1ccc(Cl)cc1)C1CCCN(S(=O)(=O)c2ccc3[nH]c(=O)ccc3c2)C1 (stereo unspecified) -19%
Cc1ccc(Oc2c(C(F)(F)F)oc3c(CN4CCCCC4)c(O)ccc3c2=O)cc1 0.627%
COc1cc(CN(C(=O)Nc2ccccc2)c2ccccn2)cc(OC)c1OC -0.114%
CCc1ccccc1NS(=O)(=O)c1ccc2[nH]cc(C(=O)N3CCCCC3)c(=O)c2c1 1.29%
CCOC(=O)c1cccc(NC(=O)c2oc3c(c2C)-c2[nH]ncc2CC3)c1 12.5%
Nc1ccn([C@@H]2O[C@H](CO)[C@@H](O)C2O)c(=O)n1 (stereo partly specified) -20%
COc1ccc(NC(=O)CC2C(=O)N(c3ccc(F)cc3)C(=O)N2Cc2cccnc2)cc1 (stereo unspecified) 2.82%
COc1cc(Cl)cn2c(-c3cccc(NC4CNC4)n3)cnc12 6.77%
COc1cccc(CNC(=O)C2CCCN(S(=O)(=O)c3ccc4c(ccn4C)c3)C2)c1 (stereo unspecified) -5.91%
COc1ccc(Cl)cc1NC(=O)c1ccc2nc(Cc3ccccc3)oc2c1 -4.28%
Cc1ccc(NC(=O)c2cc(S(=O)(=O)NCCC3=CCCCC3)ccc2F)cc1F 1.39%
CCCCNC(=O)C1CCCN(Cc2nc(-c3ccc(Cl)cc3)oc2C)C1 (stereo unspecified) 2.19%
